# The supplement of paper PMC3334620
# Over roughly 33,000 sequences, “E-score (-0.5 to 0.5)” has its median near -0.04; the highest 2% begin near 0.36. This is one part of the list.
# Biological target: T1, Hmlalpha2 (UniProt P0CY09)
# T1 sequence: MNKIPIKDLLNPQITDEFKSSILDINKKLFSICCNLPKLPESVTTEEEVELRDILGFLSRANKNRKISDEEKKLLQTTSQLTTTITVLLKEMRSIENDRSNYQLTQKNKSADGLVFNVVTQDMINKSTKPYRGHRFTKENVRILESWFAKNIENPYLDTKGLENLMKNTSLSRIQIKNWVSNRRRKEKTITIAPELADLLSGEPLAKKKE
# Assay: PBM E-score (8-mer binding enrichment) (E-score (-0.5 to 0.5)); higher = stronger / more preferred TF binding; most listed sequences are background and not binding sites
# Conditions: protein concentration: 200 nM; construct: GST-full length
# How it was run: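 For each ungapped eight-base word taken together with its reverse complement, the Universal PBM Analysis Suite assigned an E-score. Binding data came from GST-tagged yeast transcription factors, applied at about 100-200 nM, on universal all-10-mer Agilent arrays made double-stranded by primer extension. Fluorescent anti-GST marked bound protein, and scans were normalised with masliner.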
row,Sequence,PBM E-score
1,AGACTAGC,-0.214
2,AAGTTGCT,-0.0501
3,CTCACCGA,-0.152
4,ACCTGTTA,0.222
5,GTACCTAC,0.0328
6,ACTTTTGC,0.0765
7,GGTGTTCA,0.113
8,CGAGCTGA,-0.105
9,AGCAGCAT,-0.133
10,AGGTGACC,-0.212
11,TCCTGGAA,-0.242
12,GATGTATA,0.237
13,ACTACTCC,-0.0557
14,CCCACACC,-0.0147
15,ACCGACGC,0.123
16,CCGCGTAC,0.266
17,AACTTCTG,0.0373
18,CCAAGGGA,-0.322
19,CACGGCGA,0.175
20,CCTTCACA,0.0306
21,ACACCAAG,0.142
22,CTGACGGA,-0.0982
23,AATCGAGC,-0.131
24,ATCCTCAA,-0.00249
25,CGGGTAAC,-0.0328

row,Sequence,PBM E-score
1,ACCAGCGA,-0.275
2,ATTACGCG,0.467
3,ACGTCATG,0.214
4,GCAATCGA,-0.114
5,CAGCCGCA,-0.393
6,ACCTTTGA,-0.0894
7,CCATGTGA,0.184
8,CACCGGAA,-0.161
9,CTCGTTGA,0.0467
10,TCCAATCA,-0.261
11,AAATTAGA,0.177
12,GAAAGTCC,-0.328
13,ATTGACAG,-0.0357
14,GAATTCAC,0.123
15,GTATCCAA,0.00048
16,AGATTTTA,0.136
17,GGAGGACC,-0.288
18,TATTGGGA,-0.0408
19,CCCGATTA,0.0732
20,CACCGATG,-0.0352
21,AGACTCAG,-0.286
22,AGGACTGC,-0.293
23,GGTACTAC,0.113
24,CTTCGGGC,-0.237
25,AGTGGCAT,-0.239

row,Sequence,PBM E-score
1,CCACTAAG,-0.203
2,CGCAGTTC,-0.0105
3,AGTAGCCC,-0.268
4,GCGAAGCA,-0.0528
5,AGGGATGG,-0.0784
6,TAGCTAAA,0.0619
7,GGGAAGAC,-0.278
8,CGGACTAA,0.0322
9,AGTTTTGC,0.17
10,AATCCCCA,0.124
11,ACGACGCA,0.233
12,CACACCAG,-0.011
13,CTGCACAG,-0.0536
14,CCGGAGAC,-0.173
15,ATAGAACC,-0.217
16,ACTAGTAT,0.237
17,CAGAGGAC,-0.133
18,ACAGACCA,0.00368
19,GTGGGCGA,-0.04
20,GTATTCGA,0.0149
21,ACGGATCT,0.0629
22,CCATGAAA,-0.106
23,CTAGCCAC,-0.234
24,GCGTTGTA,0.315
25,CGCGGATA,0.0379

row,Sequence,PBM E-score
1,ACTGAAAA,0.0169
2,ATCACCAG,-0.156
3,GGTAGTCA,-0.178
4,CTTCTCTC,-0.0454
5,ACGCCTCG,0.0229
6,CTTAGCTA,-0.0429
7,AGCTACGC,0.0969
8,TAAAGAAA,0.275
9,ACGTTAGG,0.0618
10,ACGAACGC,0.00819
11,AGTAGCAC,-0.102
12,TCATGGAA,-0.157
13,GGAACTCA,-0.161
14,TCATAGGA,-0.117
15,CTGACCGC,-0.24
16,AAGGATAG,-0.155
17,ACATGGGT,0.382
18,ACAAGGGT,0.206
19,AACGCTCC,-0.00884
20,GATACCCA,-0.00314
21,GACCCACC,-0.333
22,AAAGTGAT,-0.126
23,CACATTAA,0.183
24,TAGATCAA,0.214
25,CAATCTGG,-0.0495

row,Sequence,PBM E-score
1,GCACGATA,0.154
2,AAAGCGTA,-0.0673
3,ACTAAAGC,0.0551
4,GCATGTAA,0.485
5,AGCCTGAC,-0.197
6,ACCTCTCT,-0.218
7,ATCAGGCA,-0.0801
8,AAACAGCC,-0.0829
9,ATGATTGG,-0.0819
10,GCTACGAA,0.0797
11,ACTCATCC,0.00616
12,CATACCTC,0.0518
13,ACGTCTAT,-0.0486
14,CGTCCGGA,-0.0393
15,ATTAAGCG,0.00243
16,CCTGGGCA,-0.301
17,CACGTATA,0.237
18,GCGGTGAA,-0.238
19,AGCTATGA,-0.141
20,AAATCTGA,-0.0012
21,CATCGGAC,-0.231
22,TAACCTCA,0.0864
23,GGCAAACC,-0.292
24,AGCGTTCA,-0.22
25,ACCATCCA,-0.0846

row,Sequence,PBM E-score
1,CCATCAAG,-0.254
2,GGACTCCA,-0.201
3,AGAAAACG,0.0424
4,CCCCATGA,-0.274
5,CCGACACA,0.0632
6,ATTATATA,0.261
7,AGGCCGCA,-0.0988
8,CGATATCA,0.0216
9,CACCGTCC,-0.158
10,GCCGGTGA,-0.149
11,AATCGCCG,-0.218
12,ACTGTTCA,-0.0539
13,TCGCTAAA,0.0398
14,CACTCACA,-0.0103
15,AGGTCCAT,-0.0867
16,AAGCGACA,0.0611
17,CGCTTGAG,-0.247
18,AACGCAGC,0.254
19,AAGGTAGT,-0.0351
20,AGTAACGA,0.0802
21,AGGAACTC,-0.163
22,GACACATA,0.26
23,AGATAAAA,0.275
24,AATTTCGT,0.114
25,ACGTATGG,0.0353

row,Sequence,PBM E-score
1,ACTGTCTA,0.194
2,ACTTCAAG,0.196
3,AACAGGGG,-0.0507
4,GCTTCGCA,-0.196
5,ATACGATG,0.19
6,AGGGCAAG,-0.053
7,GAGCGAGC,-0.0856
8,ATGAACAC,0.3
9,AAAAATTT,-0.0158
10,GCAAAGAA,0.0243
11,ACGAAAAT,0.233
12,CACAGCCC,0.00326
13,CAAACCGA,-0.0373
14,GTGAAGGA,-0.0372
15,ACCAGAGG,-0.181
16,ACAATAGG,-0.0369
17,AATAAAGA,0.106
18,AATGCATA,0.0844
19,AGCGGTAA,0.0678
20,ATAGGCAC,-0.216
21,ACTATACG,0.0826
22,AGTTAGCA,0.0472
23,TGTCCCAA,-0.0785
24,AGCCCGAT,-0.195
25,ATCGTGGG,-0.0367

row,Sequence,PBM E-score
1,CGTATCTC,-0.0211
2,ATAGTCTG,-0.0131
3,AGTGCGAG,-0.357
4,GACTCCTC,-0.169
5,AGAGGCCA,-0.241
6,CCGGGATC,-0.0963
7,TCGTCTAA,-0.0512
8,GACTGGGA,-0.0286
9,GACAGGGC,-0.124
10,ATAGCGAG,0.00326
11,CTCCCAAC,-0.252
12,AGGTCAAA,-0.122
13,CTCGTCGC,-0.232
14,ACTCAGCA,0.0533
15,TCTCCAGA,-0.21
16,AAGAGTGA,0.169
17,CTACCAAA,-0.0375
18,GCGTCATA,0.148
19,AGAACACT,0.105
20,GGTTGCTA,-0.283
21,ACCTGTGC,-0.128
22,GTCTTCGA,-0.0391
23,CGAGTGAG,-0.136
24,ATAAATCG,-0.0429
25,AGAAAGTC,-0.1

row,Sequence,PBM E-score
1,GAGTCGAC,-0.107
2,ACATAGTC,0.313
3,AGGCTTGG,-0.223
4,AACCCGCA,-0.0975
5,GGAATTAA,0.183
6,CCGGAAAC,-0.134
7,GGTCAGAA,-0.161
8,CATACAAG,0.0581
9,ATGTGTTG,0.39
10,CTCCGAAC,-0.0663
11,CCATGAGC,-0.209
12,ACTCTCAG,-0.154
13,CGTCGACA,0.21
14,ACCCTGCT,-0.269
15,GACAAGCC,0.157
16,AGGTTGGA,-0.155
17,CTTTCCTA,-0.306
18,CTGTTGAA,0.259
19,ATCGTGTG,0.313
